Results taken from patent publication US20230235090A1 (HARBOUR BIOMED US, published 2023).
Residue numbers refer to the chain shown, from its start. Names may count otherwise.

Key:
[1] = biological target: T1, human 4-1BB (human, UniProt Q07011 24-255); test: FACS, CHO-K1/h4-1BB cells [E]
T1 construct: whole, on cells; also called CD137; TNFRSF9

[2] = biological target: T2, cynomolgus monkey 4-1BB (cynomolgus monkey); test: FACS, CHO-K1/cyno 4-1BB cells [B]
T2 construct: whole, on cells; also called CHO-K1-cyno 4-1BB; CHO-K1/cyno4-1BB

[3] = biological target: T3, human B7-H4 (human, UniProt Q7Z7D3 25-282); test: FACS, SK-BR-3 cells [H]
T3 construct: whole, on cells; also called VTCN1; SK-BR-3 cell line highly expressing B7-H4
T3 sequence (looked up): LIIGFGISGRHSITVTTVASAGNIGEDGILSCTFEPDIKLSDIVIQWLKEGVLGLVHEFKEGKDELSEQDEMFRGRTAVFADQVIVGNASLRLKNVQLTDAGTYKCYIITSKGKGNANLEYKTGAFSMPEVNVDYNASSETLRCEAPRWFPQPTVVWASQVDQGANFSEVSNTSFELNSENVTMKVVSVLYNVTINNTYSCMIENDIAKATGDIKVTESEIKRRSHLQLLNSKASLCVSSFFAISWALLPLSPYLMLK

[4] = biological target: T1, human 4-1BB; test: FACS, CHO-K1/h4-1BB cells [G]
[5] = biological target: T3, human B7-H4; test: FACS, SK-BR-3 cells [C]

T1 sequence (Q07011 24-255): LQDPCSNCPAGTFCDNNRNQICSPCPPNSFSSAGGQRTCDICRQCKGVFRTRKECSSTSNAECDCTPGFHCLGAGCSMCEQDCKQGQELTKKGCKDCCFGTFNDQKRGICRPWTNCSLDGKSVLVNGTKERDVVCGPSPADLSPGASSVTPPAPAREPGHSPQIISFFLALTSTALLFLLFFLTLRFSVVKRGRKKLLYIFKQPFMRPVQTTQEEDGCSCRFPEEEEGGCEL

B1: PR003487 (bispecific antibody, human IgG1, kappa)
light: EIVMTQSPATLSVSPGERATLSCRASQSISSNLGWYQQKPGQAPRLLIYGASTRATGIPARFSGSGSGTEFTLTISSLQSEDFAVYYCQQYQSWPPLTFGGGTKVEIKRTVAAPSVFIFPPSDEQLKSGTASVVCLLNNFYPREAKVQWKVDNALQSGNSQESVTEQDSKDSTYSLSSTLTLSKADYEKHKVYACEVTHQGLSSPVTKSFNRGEC
heavy: QVQLVESGGGVVQPGRSLRLSCAASGFTFRSFGMHWVRQAPGKGLEWVAVISYDASNEYYADSVKGRFIISRDNSKDTLYLQMNSLRAGDTAVYYCAKGGGLRWYFAYWGQGTLVTVSSASTKGPSVFPLAPSSKSTSGGTAALGCLVKDYFPEPVTVSWNSGALTSGVHTFPAVLQSSGLYSLSSVVTVPSSSLGTQTYICNVNHKPSNTKVDKKV[letters of human IgG1 Fc with changes not shown]EPKSSDKTHTPPPPPRTEVQLVESGGGVVQPGGSLRLSCAASGFTFSNYAMTWVRQAPEKGLEWVSSISGSGVSTYYADSVKGRFTISRDNSKNTLYLQMTRLTAEDTAVYFCAKEGSSETDDHYYNVDVWGQGTTVTVSSEVQLVESGGGVVQPGGSLRLSCAASGFTFSNYAMTWVRQAPEKGLEWVSSISGSGVSTYYADSVKGRFTISRDNSKNTLYLQMTRLTAEDTAVYFCAKEGSSETDDHYYNVDVWGQGTTVTVSS
notes: IgG-VH-VH hexavalent symmetric; PR002408 IgG x PR001760 VH; no second linker; IgG1 (L234A, L235A)
For B1, which EC50 [1] is on record?
The EC50 was 0.755 nM.

What about the “Maximum MFI” value [1] of the same binder?
The value was 95700 MFI.

And the EC50 [2]?
The EC50 was 0.564 nM.

What about the “Maximum MFI” value [2] of the same binder?
Its value is 15800 MFI.

B2: PR004162 (bispecific antibody, human IgG1, kappa)
light: EIVMTQSPASLSVSPGERATLSCRASQSVSSNLAWYQQKPGQAPRLLIYGASTRATGIPARVSGGGSGTEFTLTISSLQSEDFAVYYCQQYKNWPFTFGPGTKLEIKRTVAAPSVFIFPPSDEQLKSGTASVVCLLNNFYPREAKVQWKVDNALQSGNSQESVTEQDSKDSTYSLSSTLTLSKADYEKHKVYACEVTHQGLSSPVTKSFNRGEC
heavy: QVQLVQSGAEVKKPGSSMRVSCKASEDTFSSYAISWVRQAPGQGLEWMGGTAPIFGTTNYAQKFQGRVTITADKSTSTAYMELSSLRSEDTAVYYCARGGPYFDYWGQGTLVTVSSASTKGPSVFPLAPSSKSTSGGTAALGCLVKDYFPEPVTVSWNSGALTSGVHTFPAVLQSSGLYSLSSVVTVPSSSLGTQTYICNVNHKPSNTKVDKKV[letters of human IgG1 Fc with changes not shown]EPKSSDKTHTPPPPPRTEVQLVESGGGVVQPGGSLRLSCAASGFTFSNYAMTWVRQAPEKGLEWVSSISGSGVSTYYADSVKGRFTISRDNSKNTLYLQMTRLTAEDTAVYFCAKEGSSETDDHYYNVDVWGQGTTVTVSS
notes: IgG-VH tetravalent symmetric; PR002410 IgG x PR001760 VH; IgG1 (L234A, L235A)
Which EC50 [3] does the source give for B2 here?
The EC50 was 3.34 nM.

And the “Maximum MFI” value [3]?
Its value is 53200 MFI.

And the EC50 [4]?
The EC50 was 0.838 nM.

And the “Maximum MFI” value [4]?
Its value is 137000 MFI.

B3: PR004357 (bispecific antibody, human IgG1, kappa, L234A L235A)
light: B2 light
heavy: QVQLVQSGAEVKKPGSSMRVSCKASEDTFSSYAISWVRQAPGQGLEWMGGTAPIFGTTNYAQKFQGRVTITADKSTSTAYMELSSLRSEDTAVYYCARGGPYFDYWGQGTLVTVSSASTKGPSVFPLAPSSKSTSGGTAALGCLVKDYFPEPVTVSWNSGALTSGVHTFPAVLQSSGLYSLSSVVTVPSSSLGTQTYICNVNHKPSNTKVDKKVEPKSCDKTHTCPPCPAPEAAGGPSVFLFPPKPKDTLMISRTPEVTCVVVDVSHEDPEVKFNWYVDGVEVHNAKTKPREEQYNSTYRVVSVLTVLHQDWLNGKEYKCKVSNKALGAPIEKTISKAKGQPREPQVYTLPPSREEMTKNQVSLTCLVKGFYPSDIAVEWESNGQPENNYKTTPPVLDSDGSFFLYSKLTVDKSRWQQGNVFSCSVMHEALHNHYTQKSLSLSPGEPKSSDKTHTPPPPPRTEVQLVESGGGLVQPGGSLRLSCAASGFTFSSYWMHWVRQAPGKGLVWVSRINSDGSSTSYADSVQGRFTISRDNAKNTLYLQMNSLRAEDTAVYYCVRKGSSSYYHYSIEDDWGQGTLVTVSS
notes: IgG-VH tetravalent symmetric; PR002410 IgG x PR001840 VH; IgG1 (L234A, L235A, P329G)
For B3, which EC50 [3] is on record?
Its EC50 is 1.43 nM.

And the “Maximum MFI” value [3]?
Its value is 53300 MFI.

What about the EC50 [4] of the same binder?
Its EC50 is 0.432 nM.

And the “Maximum MFI” value [4]?
Its value is 99200 MFI.

B4: PR004358 (bispecific antibody, human IgG1, kappa, L234A L235A)
light: B2 light
heavy: QVQLVQSGAEVKKPGSSMRVSCKASEDTFSSYAISWVRQAPGQGLEWMGGTAPIFGTTNYAQKFQGRVTITADKSTSTAYMELSSLRSEDTAVYYCARGGPYFDYWGQGTLVTVSSASTKGPSVFPLAPSSKSTSGGTAALGCLVKDYFPEPVTVSWNSGALTSGVHTFPAVLQSSGLYSLSSVVTVPSSSLGTQTYICNVNHKPSNTKVDKKVEPKSCDKTHTCPPCPAPEAAGGPSVFLFPPKPKDTLMISRTPEVTCVVVDVSHEDPEVKFNWYVDGVEVHNAKTKPREEQYNSTYRVVSVLTVLHQDWLNGKEYKCKVSNKALGAPIEKTISKAKGQPREPQVYTLPPSREEMTKNQVSLTCLVKGFYPSDIAVEWESNGQPENNYKTTPPVLDSDGSFFLYSKLTVDKSRWQQGNVFSCSVMHEALHNHYTQKSLSLSPGEPKSSDKTHTPPPPPRTEVQLVESGGGLVQPGGSLRLSCAASGFTFSSYWMHWVRQAPGKGLVWVSRINSDGSSTSYADSVQGRFTISRDNAKNTLYLQMNSLRAEDTAVYYCVRKGSSSYYHYSIEDDWGQGTLVTVSSGGGGSEVQLVESGGGLVQPGGSLRLSCAASGFTFSSYWMHWVRQAPGKGLVWVSRINSDGSSTSYADSVQGRFTISRDNAKNTLYLQMNSLRAEDTAVYYCVRKGSSSYYHYSIEDDWGQGTLVTVSS
notes: IgG-VH-VH hexavalent symmetric; PR002410 IgG x PR001840 VH; IgG1 (L234A, L235A, P329G)
Which results are given for B4?
EC50 [3]: 2.91 nM; Maximum MFI [3]: 38500 MFI; EC50 [4]: 0.519 nM; Maximum MFI [4]: 50200 MFI

B5: PR004359 (bispecific antibody, human IgG1, kappa)
light: B2 light
heavy: QVQLVQSGAEVKKPGSSMRVSCKASEDTFSSYAISWVRQAPGQGLEWMGGTAPIFGTTNYAQKFQGRVTITADKSTSTAYMELSSLRSEDTAVYYCARGGPYFDYWGQGTLVTVSSASTKGPSVFPLAPSSKSTSGGTAALGCLVKDYFPEPVTVSWNSGALTSGVHTFPAVLQSSGLYSLSSVVTVPSSSLGTQTYICNVNHKPSNTKVDKKV[letters of human IgG1 Fc with changes not shown]EPKSSDKTHTPPPPPRTEVQLLESGGGLVQPGGSLRLSCAASGFTFSNYAMSWFRQPPETGLKWVSSIDGSGGDTYYADSVKGRFTISRDNSKNTLYLQMNSLRAEDTAVYYCAKEGSHGTDDSHYDVDVWGQGTTVTVSS
notes: IgG-VH tetravalent symmetric; PR002410 IgG x PR001838 VH; IgG1 (L234A, L235A)
For B5, which EC50 [3] is on record?
The EC50 was 4.05 nM.

And the “Maximum MFI” value [3]?
The value was 37500 MFI.

And the EC50 [4]?
Its EC50 is 0.89 nM.

What about the “Maximum MFI” value [4] of the same binder?
The value was 133000 MFI.

B6: PR002800 (bispecific antibody, human IgG1, kappa, L234A L235A)
polypeptide chain 1: B1 light with Q92N
polypeptide chain 2: QVQLVESGGGVVQPGRSLRLSCAASGFTFRSFGMHWVRQAPGKGLEWVAVISYDGSNEYYADSVKGRFIISRDNSKDTLYLQMNSLRAGDTAVYYCAKGGGLRWYFAYWGQGTLVTVSSASTKGPSVFPLAPSSKSTSGGTAALGCLVKDYFPEPVTVSWNSGALTSGVHTFPAVLQSSGLYSLSSVVTVPSSSLGTQTYICNVNHKPSNTKVDKKVEPKSCDKTHTCPPCPAPEAAGGPSVFLFPPKPKDTLMISRTPEVTCVVVDVSHEDPEVKFNWYVDGVEVHNAKTKPREEQYNSTYRVVSVLTVLHQDWLNGKEYKCKVSNKALGAPIEKTISKAKGQPREPQVYTLPPSREEMTKNQVSLTCLVKGFYPSDIAVEWESNGQPENNYKTTPPVLDSDGSFFLYSKLTVDKSRWQQGNVFSCSVMHEALHNHYTQKSLSLSPGEPKSSDKTHTPPPPPRTEVQLLESGGGLIQPGGSLRLSCAASGFTFSSFAMTWVRQAPGKGLEWVSTISGSGDNTYYADSVKGRFTISRDNSKNTLYLQMNSLRAEDTAVYFCAKEDTAVASDYYYNIDVWGQGTTVTVSS
notes: IgG-VH: PR001476 IgG + PR001780 VH, linker H1_15-RT, human IgG1 (L234A, L235A, P329G)
With B6 as the binder, how does the EC50 [5] read?
Its EC50 is 0.428 nM.

What about the “Maximum MFI” value [5] of the same binder?
Its value is 33400 MFI.

B7: PR002801 (bispecific antibody, human IgG1, kappa, L234A L235A)
polypeptide chain 1: B1 light with Q92N
polypeptide chain 2: QVQLVESGGGVVQPGRSLRLSCAASGFTFRSFGMHWVRQAPGKGLEWVAVISYDGSNEYYADSVKGRFIISRDNSKDTLYLQMNSLRAGDTAVYYCAKGGGLRWYFAYWGQGTLVTVSSASTKGPSVFPLAPSSKSTSGGTAALGCLVKDYFPEPVTVSWNSGALTSGVHTFPAVLQSSGLYSLSSVVTVPSSSLGTQTYICNVNHKPSNTKVDKKVEPKSCDKTHTCPPCPAPEAAGGPSVFLFPPKPKDTLMISRTPEVTCVVVDVSHEDPEVKFNWYVDGVEVHNAKTKPREEQYNSTYRVVSVLTVLHQDWLNGKEYKCKVSNKALGAPIEKTISKAKGQPREPQVYTLPPSREEMTKNQVSLTCLVKGFYPSDIAVEWESNGQPENNYKTTPPVLDSDGSFFLYSKLTVDKSRWQQGNVFSCSVMHEALHNHYTQKSLSLSPGEPKSSDKTHTPPPPPRTEVQLLESGGGLVQLGGSLRLSCAASGFTFSSYAMTWVRQAPEKGLEWVSSISGSGGNTYYADSVKGRFTISRDNSKNTLYLQMNSLRAEDTAVYYCAKERTGTTGDYYYNVDVWGQGTTVTVSS
notes: IgG-VH: PR001476 IgG + PR001781 VH, linker H1_15-RT, human IgG1 (L234A, L235A, P329G)
How did the EC50 [5] turn out when B7 was run?
The EC50 was 0.476 nM.

What about the “Maximum MFI” value [5] of the same binder?
The value was 30600 MFI.

B8: PR002805 (bispecific antibody, human IgG1, kappa, L234A L235A)
polypeptide chain 1: B1 light with Q92N
polypeptide chain 2: QVQLVESGGGVVQPGRSLRLSCAASGFTFRSFGMHWVRQAPGKGLEWVAVISYDGSNEYYADSVKGRFIISRDNSKDTLYLQMNSLRAGDTAVYYCAKGGGLRWYFAYWGQGTLVTVSSASTKGPSVFPLAPSSKSTSGGTAALGCLVKDYFPEPVTVSWNSGALTSGVHTFPAVLQSSGLYSLSSVVTVPSSSLGTQTYICNVNHKPSNTKVDKKVEPKSCDKTHTCPPCPAPEAAGGPSVFLFPPKPKDTLMISRTPEVTCVVVDVSHEDPEVKFNWYVDGVEVHNAKTKPREEQYNSTYRVVSVLTVLHQDWLNGKEYKCKVSNKALGAPIEKTISKAKGQPREPQVYTLPPSREEMTKNQVSLTCLVKGFYPSDIAVEWESNGQPENNYKTTPPVLDSDGSFFLYSKLTVDKSRWQQGNVFSCSVMHEALHNHYTQKSLSLSPGEPKSSDKTHTPPPPPRTEVQLLESGGGLVQPGGSLRLSCAASGFIFSNFAMTWVRQPPEKGLKWVSSINGSGFNTYYTDSVKGRFTISRDNSRNTLYLQMNRLTAEDTAVYFCAKEGSSETDDHYYNVDVWGQGTTVTVSS
notes: IgG-VH: PR001476 IgG + PR001836 VH, linker H1_15-RT, human IgG1 (L234A, L235A, P329G)
Which results are given for B8?
EC50 [5]: 1.27 nM; Maximum MFI [5]: 53400 MFI
